In the RNAGym collection of RNA variant scans (doi:10.7554/elife.90254) one finds self-cleavage data, which are given here for 39 variants.

Read counts are not given, so values of variants with three or more changes are uncertain.

To fix the notation:
B1: LINE1-full (parent)
chain: UACGUAGGUGGUUUUCCCCUGAUAGUGCUAAGGGGGCCUGGAAGUUUGGACUGGGCAGAGCUCAACACAGCGUGGCAAAGUGGCUGUGGCUAGACUGCCUCUCUGGAUUCCUCGUCACUCAGCAGGGCAUCUCUGAGAGAAAUGCC

The data set covers variants of B1. The experiment in a line: self-cleavage, relative activity (ratio to wild type); higher = more cleavage; in vitro, sequencing; the parent is a self-cleaving ribozyme.
Take UACGUAGGUGGUAUUCCCCUGAUAGUGCUAAGGGGGCCUGGAAGUUUGGACUGGGCAGAGCUCAACACAGCGUGGCAAAGUGGCUGUGGCUAGACUGCCUCUCUGGAUUCCUCGCCACUCAGCAGGACAUCUCUGAGAGAAAUGCC [U13A U115C G127A]: the self-cleavage was found to be 1.12.
The result for UACGUAGGUGGUAUUCCCCUGAUAGUGCUAAGGGGGCCUGGAAGUUUGGACUGGGCAGAGCCCAACACAGCGUGGCAAAGUGGCUGUGGCUAGACUGCCUCUCUGGAUUCCUCGUCACUCUGCAGGGCAUCUCUGAGAGAAAUGCC [U13A U62C A121U] reads 0.05; that for UACGUAGGUGGUCUUCCCCUGAUAGUGCUGAGGGGCCCUGGAAGUUUGGACUGGGCAGAGCUCCGCACAGCGUGGCAAAGUGGCUGUGGCUAGACUGCCUCUCUGGAUUCCUCGUCACUCAGCAGGGCAUCUCUGAGAGAAAUGCC [U13C A30G G36C A64C A65G], 0.
In the case of UACGUAGGUGGUAUUCCCCUGAUAGUGCUAAGGGGGCCUGGAAGCUUGGACUGGGCAGAGCUCAACACAGCGAGGCAAAGUGGCUGUGGCUGGACUGCCUCUCUGGAUUCCUCGUCACUCAGCAGGGCAUCUCUGAGAGAAAUGCC [U13A U45C U73A A92G] it was 0.05.
In the case of UACGUAGGUGGUCUUCCCCUGAUAGUGCUAGGGGGGCCUGGAAGUUUGGACUGGGCAGAGCUCAACACAGCGUGGCGAAGUGGCUGUGGCUAGACUGCCUCUCUGGAUUCCUCGUCACUCAGCAGGGCAUCUCUGAGAGAAAUGCC [U13C A31G A77G] it was 0.46; in that of UACGUAGGUGGUCUUCCCCUGAUAGUGCUGAGGGGGCCUGGAAGUUUGGACUGGGCAGAGCUCAACACAGCGUGGCAAAGUGGCUGUGGCUAGACUGCCUCUCUGGAUUCCUCGUCACUCAGCAGGGCAUCUCUGAGAGGAAUGCC [U13C A30G A140G], 1.31; in that of UACGUAGGUGGUAUUCCCCUGAUAGUGCUAAGGGGGCCUGGAAGUUUGGACUGGGCAGAGCCCAACACAGCGUGGCAAAGUGGCUGUGGCUAGACUGCCUCUCAGGAUUCCUCGUCACUCAGCAGGGCAUCUCUGAGAGAAAUGCC [U13A U62C U104A], 0.08.
As to UACGUAGGUGGUCUUCCCCUGGUAGCGCUAAGGGGGCCUGGAAGUUUGGACCGGGCAGAGCUCAACACAGCGUGGCAAAGUGGCUAUGGCUAGACUGCCUCUCUGGAUUCCUCGUCACUCAGCAGGGCAUCUCUGAGAGAAGUGCC [U13C A22G U26C U52C G86A A142G], the self-cleavage turned out to be 0.28.
As to UACGUAGGUGGUCUUCCCCUGAUAGUGCUUAGGGGGCCUGGAAGUUUGGACUGGGCAGAGCUCAACACAGCGUGGCAGAGUGGCUGUGGCUAGACUGCCUCUCUGGAUUCCUCGUCACUCAGCAGGGCAUCUCUGUGAGGAAUGCC [U13C A30U A78G A136U A140G], the self-cleavage is 0.
In the case of UACGUAGGUGGUCUUCCCCUGAUGGUGCUAAGGGGGCCUGGAAGUUUGGACUGGGCAGAGCUCAGCACAGCGUGGCAAAGUGGCUGUGGCUAGACUGCCUCUCUGGAUUCCUCGUCACUCAGCAGGGCAUCUCUGAGAGAAAUGCC [U13C A24G A65G] it was 0.
The result for UACGUAGGUGGUAUUCCCCUGAUAGUGCUAAGGGGGCCUGGAAGUUCGGACUGGGCAGAGCUCAACACAGCGUGGCAGAGUGGCUGUGGCUAGACUGCCUCUCUGGAUUCCUCGUCACUCGGCAGGGCAUCUCUGAGAGAAAUGCC [U13A U47C A78G A121G] reads 2.3; that for UACGUAGGUGGUCUUCCCCUGAUAGUGCUAGGGGGGCCUGGAAGUUUGGACUGGGCAGAGCUCAACACAGCGUGGCAAAGUGGCUGUGGCUAGACUGCCUCUCUGGAUUCCUCGUCACUCAGCAGGGCAACUCUGAGAGAAAUGCC [U13C A31G U130A], 0.8; that for UACGUAGGUGGUCUUCCCCUGAUAGUGCUGAGGGGGCCUGGAAGUUUGGACUGGGCAGAGCUCAACGCAGCGUGGCAAAGUGGCUGUGGCUAGACUGCCUCUCUGGAUUCCUCGUCACUCAGCAGGCCAUCUCUGAGAGAAAUGCC [U13C A30G A67G G127C], 0.
In the case of UACGUAGGUGGUCUUCCCCUGAUAGUGCUUAGGGGGCCUGGAAGUUUGGCCUGGGCAGAGCUCAACACAGCGUGGCAAAGUGGCUGUGGCUAGACUGCCUCUCUGGAUUCCUCGUCACUCAGCAGGGCAUCUCUGAGAGAAAUGCC [U13C A30U A50C] it was 0.31; in that of UACGUAGGUGGUCUUCCCCUGAUGGUGCUAAGGGGGCCUGGAAGUUCGGACUGGGCAGAGCUCAACACAGCGUGGCAAAGUGGCUGUGGCUAGACUGCCUCUCUGGAUUCCUCGUCACUCAGCAGGGCAUCUCUGAGAGAAAUGCC [U13C A24G U47C], 0.57.
For UACGUAGGUGGUAUUCCCCUGAUAGUGCUAAGGGGGCCUGGAAGUUUGGACUGGGCAGAGCUCAACACAGCGUGGCAAAGUGGCUGUGGCUAGACUGCCUCCCUGGAUUCCUCGUCACUCAGCUGGGCAUCUCUGAGAGAAAUGCC [U13A U102C A124U], the self-cleavage was 0.68.
The result for UACGUAGGUGGUCUUCCCCUGGUAGUGCUAAGGGGGCCUGGUAGUUUGGACUGGGCAGAGCUCAACACAGCGUGGCAAAGUGGCUGUGGCUAGACUGCCUCUCUGGAUCCCUCGUCUCACAGCAGGGCAUCUCUGAGAGAAAUGCC [U13C A22G A42U U109C A117U U119A] reads 1.09; that for UACGUAGGUGGUAUUCCCCUGAUAGUGCUAAGGGGGCCUGGAAGUUUGGACUGGGCAGAGCUCAACACAGCGUGGCAAAGUGGCUGAGGCUAGACUGCCUCUCUGGACUCCUCGUCACUCAGCAGGGCAUCUCUGAGAGAAAUGCC [U13A U87A U108C], 0.08.
In the case of UACGUAGGUGGUCUUCCCCUGUUAGUGCUAAGGGGUCCUGGAAGUUUGGACUGGGCAGAGCUCAACACAGCGUGGCAAAGUGGCUGUGGCUAGACUGCCUCUCUGGACUCCUCGUCACUCAGCAGGGCAUCUCUGAGAGAAAUGCC [U13C A22U G36U U108C] it was 1.63; in that of UACGUAGGUGGUCUUCCCCUGGCAGUGCUAAGGGGGCCUGGAAGUUUGGACUAGGCAGAGCUCAACACAGCGUGGCAAAGUGGCCGUGGCUAGACUGCCUCUCUGGACUCCUCGUCACUCAGCAGGGCAUCUCUGAGAGAAAUGCC [U13C A22G U23C G53A U85C U108C], 0.66; in that of UACGUAGGUGGUCUUCCCCUGAUUGUGCUAAGGGGGCCUGGAAGUUUGGACUGGGCAGAGCUCAACACAGCGUGGCAAAGUGGCUGUGGCUAGACUGCCACUCUGGAUUCCUCGUCACUCAGCAGGGCAUCUCUGAGAGAAAUGCC [U13C A24U U100A], 0.4.
The result for UACGUAGGUGGUCUUCCCCUGAUAGUGCUGAGGGGGCCUGGAAGUUUGGACUGGGCUGAGCUCAACACAGCGUGGCAAAGUGGCUGUGGCUAGACUGCCUCUCUGGAUUCCUCGUCACUCGGCAGGGCAUCUCUGAGAGAGAUGCC [U13C A30G A57U A121G A141G] reads 0.
Consider UACGUAGGUGGUCUUCCCCUGAUGGUGCUAAGGGGGCCUGGAAGUUUGGACUGGGCAGAGCUCAACACAGCGUGGCAAAGUGGCUGUGGCUUGACUGCCUCUCCGGAUUCCUCGUCACUCAGCAGGGCAUCCCUGAGAGAAAUGCC [U13C A24G A92U U104C U132C], for which the self-cleavage was found to be 0.84.
The result for UACGUAGGUGGUCUUCCCCUGGUAGUGCUAAGGGGGCCUGGAAGUUUGGACUGGGCAGAGCUCAACACAGCGUGGCAAAGUGGCUGUGGCCAGACUGCCUCUCUGGAUUCCUCGUCACUCAGCAGGGCAUCUCUGAGAGAAAUGCC [U13C A22G U91C] reads 0; that for UACGUAGGUGGUAUUCCCCUGAUAGUGCUAAGGGGGCCUGGAAGCUUGGACUGGGCAGAGCUCAACACAGCGUGGCAAAGUGGCUGUGGCAAGACUGCCUCUCAGGAUUCCUCGUCACUCAGCAGGGCAUCUCUGUGAGAAAUGCC [U13A U45C U91A U104A A136U], 0.72; that for UACGUAGGUGGUCUUCCCCUGAUAGUGCUGAGGGGGCCUGGAAGUUUGGACUGGGCAGAGCUCAACACAGCGUGGCAAAGUGGCUGUGGCUAGACUGCCUCUCUGGACUCCUCGUCACUCAGCAGGGCAUCUCUGAGAGAAAUGCC [U13C A30G U108C], 1.84.
The result for UACGUAGGUGGUAUUCCCCUGAUAGUGCUAAGGGGGCCUGGAAGUUUGGACCGGGCAGAGCUCAACACAGCGUGGCAAAGUGGCUGUGGCUAGACUGCCUCUCUGGAUUCCUCGCCACUCAGCAGGGCAUCUCUGAGGGAAAUGCC [U13A U52C U115C A138G] reads 1.6.
In the case of UACGUAGGUGGUCUUCCCCUGAUGGUGCUAAGGGGGCCUGGAAGUUUGGACUGGGCAGAGCUCAACACAGCGUGGCAAAGUGGCUGUGGCUAGACUGCCUCUCCGGAUUCCUCGUCACUCAGCAGGGCAUCUCUGAGAGAAAUGCC [U13C A24G U104C] it was 0; in that of UACGUAGGUGGUCUUCCCCUGAUAGUGCUAGGGGGGCCUGGAAGUUUAGACUGGGCAGAGCGCAACACAGCGUGGCAAAGCGGCUGUGGCUAGACUGCCUCUCUGGAUUCCUCGUCACUCAGCAGGGCAUCUCUGAGAGAAAUGCC [U13C A31G G48A U62G U81C], 0.56; in that of UACGUAGGUGGUCUUCCCCUGAUAGUGCUAGGGGGGCCUGGAAGUUUGGACUGGGCAGAGCUCAGCACAGCGUGGCAAAGUGGCUGUGGCUAGACUGCCUCUCUGGAUUCCUCGUCACUCUGCAGGGCAUCUCUGAGGGAAAUGCC [U13C A31G A65G A121U A138G], 0.
Take UACGUAGGUGGUCUUCCCCUGAUAGUGCUAUGGGGGCCCGGAAGUUUGGACUGGGCAGAGCUCAGCACAGCGUGGCAAAGUGGCUGUGGCUAGACUGCCUCUCUGGAUUCCUCGUCACUCAGCAGGGCAUCUCUGAGAGAAACGCC [U13C A31U U39C A65G U143C]: the self-cleavage is 0.77.
In the case of UACGUAGGUGGUAUUCCCCUGAUAGUGCUAAGGGGGCCUGGAAGUUCGGACUGGGCGGAGCUCAACACAGCGCGGCAAAGUGGCUGUGGCUAGACUGCCUCUCUGGAUUCCUCGUCACUCAGCAGGGCAUCUCAGAGAGAAAUGCC [U13A U47C A57G U73C U134A] it was 0; in that of UACGUAGGUGGUCUUCCCCUGAUUGUGCUAAGGGGGCCUGGAAGUUUGGACUGGGCAGAGCUCAACACAGCGUGGCAAAGUGGCUGUGGCUAGACUGCCUCUCCGGAUUCCUCGUCACCCAGCAGGGCAUCUCUGAGAGGAAUGCC [U13C A24U U104C U119C A140G], 2.19.
The result for UACGUAGGUGGUCUUCCCCUGAUAGUGCUGAGGGGGCCUGGAAGUUUGGACUGGGCAGAGCACAACACAGCGUGGCAAAGUGGCUGUGGCUAGACUGCCUCUCUGGAUUCCUCGUCACUCAGCAGGGCAUCUCUGAGAGAAAUGCC [U13C A30G U62A] reads 0.43; that for UACGUAGGUGGUCUUCCCCUGAUAGUGCUGAGGGGGCCUGGAAGUUUGGUCUGGGCAGAGCUCAACACAGCGUGGCAAAGUGGCUGUGGCUAGACUGCCUCUCUGGAUUCCUCGUCACUCAGCAGAGCAUCUCUGAGAGAAAUGCC [U13C A30G A50U G126A], 1.75; that for UACGUAGGUGGUAUUCCCCUGAUAGUGCUAAGGGGGCCUGGAAGUUUGGACCGGGCAGAGCUCAACACAGCGUGGCAAAGUGGCUGUGGGUAGACUGCCUCUCUGGAUUCCUCGUCACUCAGUAGGGCAUCUCUGAGAGAAAUGCC [U13A U52C C90G C123U], 0.05.
In the case of UACGUAGGUGGUCUUCCCCUGAUAGUGCUAUGGGGGCCUGGAAGUUUGGACUGGGCAGAGCUCAACACAGCGUGGCAAAGUGGCUGUGGCUAGACUGCCUCUCUGGAUUCCUCGUCACUCAGCAGGGCAUCUCUGAGAGGAAUGCC [U13C A31U A140G] it was 2.13.
Take UACGUAGGUGGUAUUCCCCUGAUAGUGCUAAGGGGGCCUGGAAGUCUGGACUGGGCAGAGCUCAACACAGCGUGGCAAAGUGGCUGUGGCUAGACUGCCUCUCUGGAUUCCCCGUCACUCAGCAGGGCAUCUCUGAGAGAGAUGCC [U13A U46C U112C A141G]: the self-cleavage turned out to be 1.87.
UACGUAGGUGGUCUUCCCCUGAUUGUGCUAAGGGGGCCUGGAAGUUUGGACUGGGCAGGGCUCAACACAGCGUGGCAAAGUGGCUGUGGCUAGACUGCCUCUCUGGAUUCCUCGUCACUCAGCAGGGCAUCUCUGAGAGAAAUGCC [U13C A24U A59G]: the self-cleavage amounted to 0.24.
